This note sets out measurements from article PMC4336329 (PLoS ONE, 2015).

Among all 310,000 compounds or so, about 14,000 (4.5%) showed an effect of 50% or more. The effect is printed as a negative number. Some of the results follow.
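Also: peak tail current of the secondary pulse compared with the same well before compound.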

For the test, the target named is human ether-à-go-go-related gene (hERG) potassium channel (human, UniProt Q12809). Briefly: primary screen, population patch clamp on CHO cells stably expressing hERG.
Sequence of human ether-à-go-go-related gene (hERG) potassium channel (Q12809 whole entry, looked up): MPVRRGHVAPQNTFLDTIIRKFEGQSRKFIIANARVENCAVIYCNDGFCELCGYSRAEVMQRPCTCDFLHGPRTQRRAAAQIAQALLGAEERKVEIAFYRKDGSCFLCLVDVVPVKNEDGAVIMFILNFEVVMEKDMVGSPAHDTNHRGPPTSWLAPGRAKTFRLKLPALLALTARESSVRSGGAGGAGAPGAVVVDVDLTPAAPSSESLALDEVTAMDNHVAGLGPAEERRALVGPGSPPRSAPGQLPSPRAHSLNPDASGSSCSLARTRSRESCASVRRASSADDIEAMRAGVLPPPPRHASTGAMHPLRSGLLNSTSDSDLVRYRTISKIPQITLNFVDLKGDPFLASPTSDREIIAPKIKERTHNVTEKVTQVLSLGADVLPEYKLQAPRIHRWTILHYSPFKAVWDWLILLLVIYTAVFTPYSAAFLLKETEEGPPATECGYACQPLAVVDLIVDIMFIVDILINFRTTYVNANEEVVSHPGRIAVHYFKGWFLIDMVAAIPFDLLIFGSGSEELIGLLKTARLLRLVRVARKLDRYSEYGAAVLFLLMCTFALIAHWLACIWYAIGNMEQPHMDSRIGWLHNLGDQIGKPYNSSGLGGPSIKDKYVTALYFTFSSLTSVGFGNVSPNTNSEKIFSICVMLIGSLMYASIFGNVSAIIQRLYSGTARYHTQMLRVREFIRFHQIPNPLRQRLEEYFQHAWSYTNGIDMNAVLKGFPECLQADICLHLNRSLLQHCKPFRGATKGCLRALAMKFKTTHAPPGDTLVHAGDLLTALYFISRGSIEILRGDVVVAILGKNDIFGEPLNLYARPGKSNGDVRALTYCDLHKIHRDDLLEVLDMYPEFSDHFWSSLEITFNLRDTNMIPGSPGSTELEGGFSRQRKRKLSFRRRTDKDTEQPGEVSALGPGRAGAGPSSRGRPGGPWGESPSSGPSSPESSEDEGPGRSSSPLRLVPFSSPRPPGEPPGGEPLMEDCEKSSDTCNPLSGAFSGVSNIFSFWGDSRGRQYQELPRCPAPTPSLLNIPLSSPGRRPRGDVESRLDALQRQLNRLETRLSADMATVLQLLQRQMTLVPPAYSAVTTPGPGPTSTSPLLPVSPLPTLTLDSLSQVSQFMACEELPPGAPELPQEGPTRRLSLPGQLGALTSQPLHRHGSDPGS
Regarding `CC(C)=CC1C=C(C)C(C)C2C(=O)NNC(=O)C12` (stereo not drawn), the “hERG current change (%, negative = inhibition) at 10uM” value is on record as 14.9%.
Take `O=C(NCC1CCCN(Cc2cccc(F)c2)C1)c1cccc2ccccc12` (stereo not drawn): the “hERG current change (%, negative = inhibition) at 10uM” value is listed as -17.6%.
As to `CCCCc1nc(SCC(=O)Nc2ncccn2)n[nH]1`, the “hERG current change (%, negative = inhibition) at 10uM” value amounted to 5.71%.
In the case of `CCOC(Cn1c(SCc2cc(C(C)=O)ccc2OC)nc2ccccc2c1=O)OCC` it was 3.59%; in that of `CN(C)S(=O)(=O)c1cccc(NS(=O)(=O)c2ccc(Cl)s2)c1`, 2.17%.
In the case of `COc1ccc(NC(=O)COC(=O)c2cc(Cl)ccc2O)cc1S(=O)(=O)N1CCCCC1` it was 10.5%; in that of `O=C(CN1C(=O)COc2ccc(S(=O)(=O)N3CCCCC3)cc21)NCc1ccccc1Cl`, 22.7%; in that of `O=C(O)CNC1c2ccccc2CSc2ccccc21` (stereo not drawn), 19.5%.
On to `COc1cccc(CNC(=O)Cn2ccc3cc(S(=O)(=O)N4CCC(C)CC4)ccc32)c1`, for which the “hERG current change (%, negative = inhibition) at 10uM” value is listed as -23.7%.
For the molecule `CCc1nnc(NC(=O)CSc2nnc(Cc3ccccc3)n2-c2ccccc2)s1`, the “hERG current change (%, negative = inhibition) at 10uM” value is given as -3.2%.
In the case of `O=C(/C=C/c1ccccc1[N+](=O)[O-])c1ccc(F)cc1` it was 3.18%; in that of `COc1ccc(CCNC(=O)c2cc(-c3ccc(C)cc3O)n[nH]2)cc1OC`, 5.19%; in that of `CCOc1ccc2nc(N3C(=O)/C(=C/c4ccccc4)NC3=S)sc2c1`, 18.9%.
Take `CCOc1cc(CNc2ccc(S(N)(=O)=O)cc2)ccc1OCC(=O)NC(C)(C)C`: the “hERG current change (%, negative = inhibition) at 10uM” value amounted to 21.4%.
`O=C(CCCOc1ccc(Cl)cc1Cl)N1CCN(c2ccccn2)CC1`: the “hERG current change (%, negative = inhibition) at 10uM” value is reported as -27.1%.
In the case of `CCc1ccc(CN(C)C(=O)C2CCC(=O)N(CCc3ccc(OC)cc3)C2)nc1` (stereo not drawn), the “hERG current change (%, negative = inhibition) at 10uM” value is on record as -79.9%.
Take `CCNc1nc(NCC)n2c(SCC(=O)Nc3ccc(F)cc3[N+](=O)[O-])nnc2n1`: the “hERG current change (%, negative = inhibition) at 10uM” value is -18.8%.
For `COc1ccccc1N(C(=O)CNC(=O)c1ccco1)C(C(=O)NCC1CCCO1)c1ccccc1` (stereo not drawn), the “hERG current change (%, negative = inhibition) at 10uM” value was 8.04%.
In the case of `O=C(Cc1ccc([N+](=O)[O-])cc1)N/N=C/c1cccnc1` it was -9.63%; in that of `CC(=O)N1CCN(S(=O)(=O)c2cccc(C(=O)Nc3nccs3)c2)CC1`, 3.42%; in that of `Nc1ccc(N=Nc2ccccc2)c2ccccc12`, 22.4%.
In the case of `C/C(=N\NC(=O)C1(C)CC1(Br)Br)c1ccc(NC(=O)c2ccc(C)o2)cc1` (stereo not drawn) it was -8.92%.
For the molecule `O=C(Nc1ccccc1)C1=C[C@@H](C2CCCCC2)C[C@@H](OCc2ccc(CO)cc2)O1`, the “hERG current change (%, negative = inhibition) at 10uM” value is 10.3%.
On to `Cc1ccc(CSCC(=O)N(C)CC(=O)Nc2ccc(Cl)c(Cl)c2)cc1`, for which the “hERG current change (%, negative = inhibition) at 10uM” value is recorded as 7.19%.
Turning to `COc1ccccc1C(=O)NCCCNc1ccc([N+](=O)[O-])cc1`, the “hERG current change (%, negative = inhibition) at 10uM” value is recorded as -19.2%.
Take `O=C(NCC1CCCO1)c1ccccc1NC(=O)c1cccc2ccccc12` (stereo not drawn): the “hERG current change (%, negative = inhibition) at 10uM” value is -21.5%.
Regarding `CC1C(=O)N2CCCc3cc(S(=O)(=O)N4CCC(C(N)=O)CC4)cc1c32` (stereo not drawn), the “hERG current change (%, negative = inhibition) at 10uM” value is listed as 7.24%.
Regarding `COC(=O)/C=C1\N/C(=N/c2nc(C)c3cc(OC)ccc3n2)NC1=O`, the “hERG current change (%, negative = inhibition) at 10uM” value came out at 6.39%.
Take `CC(C)C12CN(C(=O)c3ccccc3[N+](=O)[O-])CC(C(C)C)(CN(C(=O)c3ccccc3[N+](=O)[O-])C1)C2=O`: the “hERG current change (%, negative = inhibition) at 10uM” value is 1.65%.
Take `COC(=O)c1c(NC(=O)C2CCC2)sc(C(=O)N(C)C)c1C`: the “hERG current change (%, negative = inhibition) at 10uM” value is 4%.
Take `CCOC(=O)c1c(NC(=O)CCS(=O)(=O)c2ccccc2)sc2c1CCN(C(C)C)C2.Cl`: the “hERG current change (%, negative = inhibition) at 10uM” value is reported as -72.4%.
`CCN1C(=O)[C@H]2[C@@H](c3ccc(-c4ccc(OC)cc4)cc3)N[C@@](CC(C)C)(C(=O)OC)[C@H]2C1=O.O=C(O)C(F)(F)F`: the “hERG current change (%, negative = inhibition) at 10uM” value is listed as 11.9%.
In the case of `CC(=O)Nc1nnc(SCC(=O)c2ccc3c(c2)Cc2ccccc2-3)s1` it was 17.2%; in that of `COc1ccc(Cl)cc1C(=O)Nc1ccc(NC(C)=O)cc1`, 19.9%.
Regarding `COc1ccc(CC(=O)NC(C)c2nnc(SCc3nc4ccccc4c(=O)[nH]3)n2C)cc1` (stereo not drawn), the “hERG current change (%, negative = inhibition) at 10uM” value came to 10.5%.
Turning to `O=c1[nH]c2ccccc2c(O)c1-[n+]1ccccc1.[Cl-]`, the “hERG current change (%, negative = inhibition) at 10uM” value is recorded as 22.5%.
For `COc1ccc(Cc2nc3ccccc3n2C)cc1.Cl`, the “hERG current change (%, negative = inhibition) at 10uM” value is reported as -5.24%.
`Cc1ccc(N2CCN(C(=O)c3ccccc3NC(=O)/C=C\C(=O)O)CC2)cc1`: the “hERG current change (%, negative = inhibition) at 10uM” value is -20.9%.
For `CCOc1ccccc1/C=N/Nc1ccc(Cl)nn1`, the “hERG current change (%, negative = inhibition) at 10uM” value amounted to 14%.
Take `CCOC(=O)c1nnn(-c2nonc2N)c1-c1cccc2ccccc12`: the “hERG current change (%, negative = inhibition) at 10uM” value was -0.911%.
As to `CCN1CCN(CCCNC(=O)c2ccc(CS(=O)c3ccc(Br)cc3)o2)CC1` (stereo not drawn), the “hERG current change (%, negative = inhibition) at 10uM” value was found to be 24.5%.
On to `O=C(Nc1ccc(Cl)cc1)C1CCCN(S(=O)(=O)c2cnc[nH]2)C1` (stereo not drawn), for which the “hERG current change (%, negative = inhibition) at 10uM” value is 16.6%.
Turning to `c1ccc(OCc2nnc(-c3ccccc3)o2)cc1`, the “hERG current change (%, negative = inhibition) at 10uM” value is listed as 9.03%.
On to `C/C(=N\NC(=O)c1ccc2c(c1)OCCO2)c1ccccc1`, for which the “hERG current change (%, negative = inhibition) at 10uM” value is 3.93%.
Consider `CCCCN(CC)CCCNC(=O)c1csc2c1CCCCC2`, for which the “hERG current change (%, negative = inhibition) at 10uM” value worked out at 43%.
In the case of `C=CCn1c(C)cc(C(=O)CN2C(=O)NC3(CCCc4ccccc43)C2=O)c1C` (stereo not drawn) it was 2.9%.
As for `Fc1cccc(NC(=S)NNc2ccccc2)c1`, the “hERG current change (%, negative = inhibition) at 10uM” value is listed as 15.1%.
`COc1ccc(C(=O)C2CCCN(Cc3ccon3)C2)cc1OC` (stereo not drawn): the “hERG current change (%, negative = inhibition) at 10uM” value is reported as 11.2%.
In the case of `COc1ccc(CS(=O)(=O)c2ncn[nH]2)cc1` it was -17.8%; in that of `Cc1cc2oc(=O)cc(CN(C)Cc3cccc(F)c3)c2cc1C`, 10.6%; in that of `COc1cccc(-c2ccc(SCC(=O)NCCc3ccccc3)nn2)c1`, -41.7%.
Regarding `Cc1ccc(S(=O)(=O)N2CCC(C(=O)N3CCC(C(=O)NCC4CCCO4)CC3)CC2)cc1` (stereo not drawn), the “hERG current change (%, negative = inhibition) at 10uM” value is given as -7.13%.
Take `CCOc1cc(-c2cc(-c3ccc(C)o3)nc(N)c2C#N)ccc1O`: the “hERG current change (%, negative = inhibition) at 10uM” value was -10.2%.
For `CCC1C=CC=CC[C@H](C)[C@@H](O)[C@](C)(O)C(=O)[C@@H](C)[C@H](O)[C@@H](C)C(=O)[C@H](C)[C@@H](O)[C@H](C)C=CC(=O)OC2[C@@H](C)C(CC1)OC1(CC[C@@H](C)C(C[C@H](C)O)O1)[C@@H]2C` (stereo partly drawn), the “hERG current change (%, negative = inhibition) at 10uM” value turned out to be 16.8%.
